This passage reports TGI and GI50 results from PubChem BioAssay (NCI).

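Five concentrations, 48 hours, 96-well plates. The concentration for 50% growth inhibition is given as GI50.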 For part of its entries the source gives two or more results. They are shown here; other results are not. An entry can have further records. For some assays here: A record mostly stands for its own series of concentrations, which the source does not state; some values may only mark the edge of a range. For some assays here: Values that stand side by side repeat one measurement across runs, samples, wells, individuals or studies. A tag in brackets gives the origin of a value. A, B and so on number the origins entry by entry.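 TGI marks complete inhibition of growth.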

Among the test systems are P388/ADR leukemia; HL-60(TB) leukemia; P388 leukemia; MALME-3M melanoma; OVCAR-5 ovarian; UACC-257 melanoma; HT29 colon; LOX IMVI melanoma; SN12C renal; SK-MEL-5 melanoma.
Common to all, as to experiment: NCI tumour cell line growth inhibition, 48 h

With `CC12CCC3C(CCC4=CC(O)CCC43C=O)C1(O)CCC2c1ccc(=O)oc1` (stereo unspecified), the TGI with P388/ADR leukemia was 321 nM and 313 µM; with HL-60(TB) leukemia it was 10.8 nM and 500 µM; in the assay with P388 leukemia it was 111 nM and 198 µM; in the assay with MALME-3M melanoma, 8.23 nM [mean of 3 tests] and 189 nM [mean of 4 tests]; with OVCAR-5 ovarian it was 11.7 nM and 168 nM; in the assay with UACC-257 melanoma, 62.4 nM and 1.39 µM. For the same compound, the TGI was 43.5 nM and 1.16 µM with HT29 colon; 30.9 nM and 580 nM in the assay on LOX IMVI melanoma; 141 nM and 500 µM in the assay with SN12C renal. Further, in the assay on MALME-3M melanoma, the GI50 was 4.06 nM [mean of 3 tests] and 158 nM [mean of 4 tests].

As for `O=C(c1ccc(F)c(F)c1Nc1ccc(I)cc1F)N1CC(O)([C@@H]2CCCCN2)C1`, in the assay with SK-MEL-5 melanoma, the GI50 was < 28.8 nM [sample A, mean of 2 tests] and 796 nM [sample B, mean of 2 tests].
